Assay results taken from PubChem BioAssay (NCI).
Several values for one entry are separate records, joined by “and”; a condition that tells them apart may be missing. Equal values may be shown once.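 Five compound concentrations were applied to cells in 96-well plates for 48 hours; endpoints were derived by simple linear interpolation of the resulting dose-response curve. GI50: concentration for 50% inhibition of growth. TGI denotes the concentration required for complete inhibition of growth.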 Square brackets hold non-standard residues; d marks the D form. Peptide text beside a SMILES is read from it. * marks the point of attachment. Phe(F5) = N[CH](Cc1c(F)c(F)c(F)c(F)c1F)C(=O)O; Cbz = O=C(OCc1ccccc1)*; OBn = c1ccc(CO*)cc1

Tested on: NCI-H322M lung
Test: NCI-60 cell line screen, 48 h

Compound	GI50	TGI
CN(C)CCNC(=O)c1cccn2c(=O)c3cc4ccccc4cc3nc12	0.171 µM	2.5 µM
CC1Oc2cc3c(-c4c(O)cc(O)c5c(O)c6c(cc45)OC(C)C(C)C6=O)c(O)cc(O)c3c(O)c2C(=O)C1C (stereo not given)	–	2.05 µM
CN(C)c1ccc(/C=C/C=C\C2=CC(=C\C=C/C=C3C=CC(=[N+](C)C)C=C3)/Sc3ccccc32)cc1	–	> 100 µM
COc1ccc(C(=O)/C=C/c2ccc(Cl)cc2)cc1S(=O)(=O)Nc1c(N)nc(SC)[nH]c1=O	2.38 µM	7.73 µM
Cc1nn2c(=O)c([N+](=O)[O-])c(/C=C/c3ccccc3)nc2s1	–	29.7 µM
CN(C)c1ccc2c(NCCCCCCNc3ccnc4cc(N(C)C)ccc34)ccnc2c1	–	84.7 µM
Cn1c(=O)c2[nH]c(/N=N/N3CCN(CCO)CC3)nc2n(C)c1=O	–	> 100 µM
COc1cc2nc(Cl)nc(Nc3cccc(C(=O)/C=C/c4ccccc4)c3)c2cc1OC	> 45.2 µM	> 100 µM
C=CCONC(=O)c1ccc(Cl)cc1	–	> 100 µM
COC(=O)[C@@H]1CSC(=S)N1C(=O)C[C@H]1CC=CC[C@H]1CC(=O)Sc1ccccc1	–	56 µM
COc1cc(/C=C/C(=O)c2sc(-n3nc(-c4ccccc4)cc3-c3ccccc3)nc2C)ccc1O	–	> 100 µM
CC1C2CC(CC(=O)N2)C1(C)C (stereo not given)	–	> 100 µM
O=c1[nH]c(=O)n(C2OC(CO)C(O)C(F)C2O)cc1F (stereo not given)	–	> 100 µM
COc1ccc(-c2ccc(-c3ccc(C(=N)N)nc3)s2)cc1	1.59 µM	2.96 µM
Fc1cc(C2=C[C@H](c3ccc(Cl)cc3)NC(=S)N2)c(Cl)cc1Cl	–	> 100 µM
Cc1occc1C(=S)Nc1ccc(Cl)c(C(=O)OCC(F)(F)F)c1	–	78.1 µM
COC12C=CC(CC1)c1c(O)ccc(O)c12 (stereo not given)	–	> 100 µM
O=C1NC(N2CCOCC2)=N/C1=C\c1cccs1	–	> 100 µM
NC(=O)c1cc2ccccc2oc1=Nc1ccccc1	–	> 100 µM
COC(=O)[C@H](Cc1ccccc1)NC(=O)NCCN(CCNC(=O)N[C@@H](Cc1ccccc1)C(=O)OC)C(=O)N[C@@H](Cc1ccccc1)C(=O)OC	–	36.6 µM
N#CC(C#N)=CN1CCN(C(=O)c2ccco2)C1=S	15.5 µM	37.7 µM
C=CCC(N[C@H](CO)C(C)C)c1cn(C(=O)OCC)c2ccccc12 (stereo not given in full)	25.3 µM	> 100 µM
N#CSc1ncnc2nc[nH]c12	12.4 µM	> 100 µM
O=C(c1ccc(Cl)cc1Cl)N(C(=O)N1CCC(c2ccccc2)CC1)c1ccccc1	–	> 100 µM

Compound	GI50	TGI
N#CC(C#N)=Cc1ccc(-c2ccc(-c3nc4ccccc4s3)cc2)o1	24.8 µM	> 100 µM
NC1CC(=O)c2cc(Cl)sc21 (stereo not given)	–	> 100 µM
CCn1c(-c2nonc2N)nc2cncc(C(=O)N3CCNCC3)c21	> 25 µM	> 25 µM
O=C(CCl)c1ccc([N+](=O)[O-])o1	15.6 µM	31.5 µM
CCOC(=O)CSc1ccnc(=O)[nH]1	–	> 100 µM
CC1(Sc2ccccc2)CN(Cc2ccccc2)C1=O (stereo not given)	–	> 100 µM
Cc1c2cnccc2c(C)c2c1[nH]c1ccc(O)cc12	–	> 10 µM
O=C1C/C(=C/c2ccc(/C=C3/CC(=O)N(c4cccc(Br)c4)C3=O)cc2)C(=O)N1c1cccc(Br)c1	–	> 100 µM
c1csc(-c2cscc2-c2ccsc2)c1	–	> 100 µM
COc1ccc(Cn2nc(-c3cc(OC)c(OC)c(OC)c3)c3c2CCc2cnoc2-3)cc1OC	58.1 µM	> 100 µM
Oc1ccccc1/C=N/Nc1nnc2c3ccccc3c3ccccc3c2n1	–	> 100 µM
COc1ccccc1[N-]C(C1=C([O-])c2ccccc2C1=O)c1ccccc1.COc1ccccc1[N-]C(C1=C([O-])c2ccccc2C1=O)c1ccccc1.[Cu+2] (stereo not given)	5.23 µM	36.8 µM
C[C@H]1[C@H](C)N(Cc2ccccc2)P(=O)(C(O)/C=C/c2ccccc2)N1Cc1ccccc1 (stereo not given in full)	–	> 25 µM
O=P(O)(OCC(O)O)OCC(O)O	–	> 100 µM
Cc1cc(N2CCCCC2)nc(N(CCNc2ccnc3cc(Cl)ccc23)Cc2ccco2)n1	1.81 µM	4.44 µM
CCOC(=O)c1ccc(C(=O)OCC)n1-c1cc2cc(c1)CSCc1cc(cc(-n3c(C(=O)OCC)ccc3C(=O)OCC)c1)CSC2	–	> 10 µM
COc1cc(OCc2ccc3nc(-c4ccccc4)c(N)nc3c2)cc(OC)c1OC	–	45.4 µM
COc1cc(S(=O)(=O)Nc2ccc(-c3csc(N4C(=O)CSC4c4cccs4)n3)cc2)ccc1Cl (stereo not given)	–	> 100 µM
COc1cc2c(cc1OC)-c1ccc3cc4c(cc3c1N(CCN1CCCC1)C2)OCO4	0.801 µM	2.61 µM
N#Cc1ncc(/N=C/c2ccc(N(CCCl)CCCl)cc2)s1	> 100 µM	> 100 µM
CCC[CH2][Sn]([CH2]CCC)([O]C(C)=O)[O]C(C)=O	1.83 µM	3.6 µM
CCOC(=O)Cc1c[nH]c(=S)[nH]c1=O	> 100 µM	> 100 µM
COc1ccc2c(c1)CC[C@@H]1[C@@H]2CC[C@]2(C)C(=O)C3(CCCCC3)C[C@@H]12	> 100 µM	> 100 µM
CCc1nnc(CC)n1NCCCC(=O)O	–	> 100 µM

Compound	GI50	TGI
CCOP(=O)(OCC)C1CCCCOC1=O (stereo not given)	–	> 100 µM
C=C1C(=O)C([Si](C)(C)C)=C2C=C(C)C3(CC3)C12C (stereo not given)	–	> 100 µM
COc1cccc(OC(=O)c2ccccc2Nc2ccnc(C(F)(F)F)c2)c1	7.37 µM	51.7 µM
O=c1n(/N=C/c2ccccc2)c(=O)n2n1C1C=CC2CC1	–	> 100 µM
COc1cc(/C=C\c2ccccn2)cc(OC)c1OC	–	> 100 µM
Cn1c(O)c(C(=O)Nc2cccs2)c(=O)[nH]c1=S	–	52.1 µM
N#CC1(C#N)C2CCCCC23OC(=N)C1(C#N)C(c1ccco1)O3 (stereo not given)	–	> 100 µM
CC1CC2OC(=O)C3CC(O)CC(=C23)[C@@]12C[C@@H](c1ccoc1)OC2=O (stereo not given in full)	–	> 100 µM
O=C(O)CSSCC(=O)O	–	> 100 µM
CC[C@H](Nc1nc(N)nc(C)c1C#N)c1nc2cccc(CN(C)c3ncc(C(=O)NO)cn3)c2c(=O)n1-c1ccccc1	1.04 µM	6.97 µM
CCOC(=O)c1c2c(n(CC(C)C)c1C)-c1nc[nH]c1C(=O)C2=O	15.6 µM	28.9 µM
C[C@@]12C=CC3C/C(=N\C(N)=S)C=C(CCCC4OCCO4)[C@]3(CC1)C2 (stereo not given in full)	–	42.1 µM
CC(=O)/C(=C\c1ccco1)C(=O)Nc1ccccc1	–	> 100 µM
COC(=O)N1C[C@@]2(C=CC3(CC2)OCCO3)c2ccccc21	–	> 100 µM
CC1=C/C(=N\OCC(=O)O)CC(c2ccc(C(C)C)cc2)C1 (stereo not given)	–	> 100 µM
NS(=O)(=O)c1cc2c(cc1Cl)NC(C(=O)c1cc(=O)c3ccc(O)cc3o1)=NS2(=O)=O	–	> 100 µM
CC(C)(C(=O)NN)c1ccccc1	–	> 100 µM
NC(=O)OCC(COc1ccc(Cl)cc1)OC(=O)c1ccccc1Cl (stereo not given)	–	> 100 µM
C=C(C)[C@@H]1CC[C@]2(C(=O)NCCCN)CC[C@]3(C)[C@H](CC[C@@H]4[C@@]5(C)CC[C@H](O)C(C)(C)[C@@H]5CC[C@]43C)[C@@H]12	17.6 µM	36.1 µM
O=C1c2cc3c(cc2CC12Cc1cc4c(cc1C2=O)CCCC4)CCCC3	–	> 100 µM
COc1ccc(OC)c2sc(N3C(=O)/C(=C/Cc4ccco4)N=C3c3ccccc3)nc12	–	> 100 µM
O=C1C(Cl)=C(N/N=c2/[nH][nH]/c(=N/NC3=C(Cl)C(=O)c4ccccc4C3=O)c3ccccc23)C(=O)c2ccccc21	18.1 µM	33.3 µM
COc1cc(NC(C)=O)c2[nH]c3c(C)cc(NC(C)=O)c(C)c3c2c1	–	> 100 µM
c1ccc2nc(Cn3c[n+](Cc4ccc5ccccc5n4)c4ccccc43)ccc2c1	3.68 µM	17.1 µM

Compound	GI50	TGI
O=C(NO)c1ccc([N+](=O)[O-])cc1	–	> 100 µM
COc1cc2cc(C(=O)N3CC(CCl)c4c3cc(NC(=O)C(C)(C)c3ccccc3[N+](=O)[O-])c3ccccc43)[nH]c2c(OC)c1OC (stereo not given)	–	31.7 µM
COc1cc(Br)c(OC)c2c(OC)cc(C)cc12	–	> 100 µM
O=C(O)CS(=O)(=O)C(c1ccccc1)c1ccccc1	–	> 100 µM
O=C(CCn1[nH]c(=O)c(Cl)c(Cl)c1=O)NOCCCc1ccccc1	–	> 100 µM
CC(C)=CCCC1(C)C=Cc2c(c(C)cc3c2[nH]c2cc(O)ccc23)O1 (stereo not given)	–	> 25 µM
O=C(O)C(=C\c1ccc2c(c1)OCO2)/C(=C/c1ccc2c(c1)OCO2)C(=O)O	–	> 100 µM
CC1(C)CCC2(C(=O)OC3OC(CO)C(O)C(O)C3O)CC[C@]3(C)C(=CCC4C5(C)CC[C@H](OC6OC(C(=O)O)C(O)C(O)C6O)C(C)(C)C5CCC43C)C2C1 (stereo not given in full)	4.08 µM	11.7 µM
CCOC(=O)/C(O)=C(/C=N\C(=S)Nc1ccccc1Cl)C(=O)OCC	–	> 100 µM
Nc1ccn(C2CC(O)C(COP(O)(=S)OC3CC(n4ccc(N)nc4=O)OC3CO)O2)c(=O)n1 (stereo not given)	–	> 100 µM
CCN=C1C=CC(=C(c2ccc(N(C)C)cc2)c2ccc(N(C)C)cc2)c2ccccc21	0.17 µM	0.601 µM
OCC1OC(n2ccc3c2ncn2ncnc32)C(O)C1O (stereo not given)	2.79 µM	> 92.7 µM
CCOC(=O)/C(N=Nc1ccc(-n2c(C)nc3ccccc3c2=O)cc1)=C(/C)O	–	> 100 µM
COC(=O)C(CC(C)C)NC(=O)C(Cc1cnc[nH]1)NC(=O)CNC(=O)C(NC(=O)C(C)NC(=O)C(Cc1c[nH]c2ccccc12)NC(=O)C(CCC(=O)O)NC(=O)C(N)Cc1c(F)c(F)c(F)c(F)c1F)C(C)C (stereo not given) (H-[Phe(F5)]EWAVGHL-OMe; configuration not given here)	> 100 µM	> 100 µM
CCN(CC)CCOc1ccc(C(=C(C)c2ccc(Cl)cc2)c2ccc(OCCN(CC)CC)cc2)cc1	0.801 µM	2.3 µM
COC(=O)CNC(=O)C(C)NC(=O)C(CC(=O)OCc1ccccc1)NC(=O)OCc1ccccc1 (stereo not drawn) (Cbz-Asp(OBn)-Ala-Gly-OMe; configuration not given here)	–	> 100 µM
CC(C)(O)c1ccc(N2CCN(c3nnc(Cc4ccccc4)c4ccccc34)CC2)nc1	8.57 µM	23 µM
O=C(Nc1cccc(Cl)c1)Nc1ncc(CCNc2ncnc3ccsc23)s1	12.3 µM and > 10 µM	26 µM and > 10 µM
O=C(NC(C(F)(F)F)(C(F)(F)F)P(=O)(c1ccccc1)c1ccccc1)C(C(F)(F)F)C(F)(F)F	–	> 100 µM
O=C1c2ccccc2C(=O)N1CC1(C(=O)O)NCCS1(=O)=O (stereo not given)	–	> 100 µM
O=c1cc(CNc2cc(F)cc(F)c2)c2ccc(I)cc2[nH]1	0.896 µM	> 100 µM
